Test results as given in patent US10117953B2, “Antibody drug conjugates” (Novartis AG, priority 2013, dated 2018).

Legend:
[1] = molecular target: T1, wildtype cKIT in NCI-H526 cells (Homo sapiens, UniProt P10721); test: cKIT degradation Western blot timecourse; assay type: cell-based
T1 construct: host or cells: NCI-H526
Procedure: 5×10^6 of GIST-T1 (kindly provided by Dr. Takahiro Taguchi, Kochi U., Japan) or NCI-H526 (ATCC CRL-5811) cells were seeded in growth media (DMEM, 10% FBS for GIST T-1 and RPMI, 10% FBS for NCI-H526) the night before at 37° C. with 5% CO2. Cells were then treated with 100 mM cycloheximide (CHX) (Cat#090M4009, Sigma-Aldrich, St. Louis, Mo.) in methionine free medium (GIBCO: DMEM, 21013-024; RPMI, A14517-01, Life Technologies, Carlsbad, Calif.). […] Cells were harvested at 1 hour, 4 hour, and 6 hour post treatment in 1 ml PBS. […] Lysates were then spun down for 40 mins at 12,000 rpm at 4C. Five μg of each sample was boiled for 10 min at 75° C. and loaded on a 15-well NuPAGEO 4-12% Bis-Tris gel (NP0323BOX Life Technologies, Carlsbad, Calif.). After protein transfer to membrane blots, membranes were blocked in TBST-5% milk at room temperature for 1 hour and then probed with anti cKIT antibody (Cell Signaling Technology Cat#3074, Beverly, Mass.) overnight at 4° C. Blots were washed in TBST (4×5 mins) the next day. The blot was incubated in the secondary antibody (goat-anti rabbit-HRP 1:30,000, Santa Cruz Biotechnologies, Dallas, Tex.) for 1 hour at room temperature. The blot was washed in TBST (4×5 mins) and developed. The primary antibodies used for Western blotting were α-cKIT (Cell Signaling Technology Cat#3074) and GAPDH (Cell Signaling Technology Cat#3683). […]

[2] = tested on: Mo7e cells (SCF-dependent); test: Mo7e proliferation assay in presence of SCF; assay type: cell-based, human; conditions: 10 ng/ml SCF, 5 days
Procedure: To evaluate the potential antagonistic properties of the naked antibodies and the ability of the antibody drug conjugates (ADCs) to inhibit the proliferation of a cKIT-expressing cell line, MO7e (DSMZ, Catalog # ACC-104, Braunschweig, Del.) were grown in the presence or absence of cKIT ligand, Stem Cell Factor (SCF), for survival. MO7e cells were grown in either 10 ng/ml human granulocyte-macrophage colony-stimulating factor GM-CSF (R&D Systems Cat#215-GM, Minneapolis, Minn.) or 10 ng/ml human Stem Cell Factor SCF (R&D Systems Cat#255-SC) prior to seeding in 96 well plates (Costar Cat #3904, Corning, Tewksbury, Mass.) at 5000 cells/well in 100 μl dilution medium. A duplicate plate was generated for a day 0 measurement and all plates were incubated in a tissue culture incubator at 37° C. with 5% CO2 overnight. […] Assay plates were shaken gently for 20 min and the resulting luminescence intensity was measured using a Perkin Elmer 1450 Microbeta TriLux® plate reader (Perkin Elmer, Waltham, Mass.). […] Following this incubation period, relative cell viability was determined via the addition of Cell titer Glo reagent as described above. The effect of the ADCs on cell proliferation was calculated using the average of the duplicates as follows: (% Inhibition=(ADC or Ab treated)/(untreated)*100) The % inhibition data was fitted to a 4-parameter logistic equation and IC50 values were determined.

[3] = tested on: GIST T1 subcutaneous tumor xenograft; test: Efficacy of related ADCs at low effective dose; assay type: in vivo, mouse; conditions: single i.v. dose 0.625 mg/kg
Procedure: The control IgG1-MCC-DM1 even at the high dose of 10 mg/kg was not active.

[4] = tested on: NCI-H1048 small cell lung cancer xenograft; test: Anti-cKIT ADC efficacy study, single 2 mg/kg dose; assay type: in vivo, mouse; conditions: single intravenous dose 2 mg/kg
Procedure: All treated groups received a single intravenous dose of 2 mg/kg.

[5] = tested on: GIST T1 subcutaneous tumor xenograft; test: Efficacy of mouse cross-reactive 20376-MCC-DM1; assay type: in vivo; conditions: single i.v. dose 0.625 mg/kg

T1 sequence (P10721 26-976): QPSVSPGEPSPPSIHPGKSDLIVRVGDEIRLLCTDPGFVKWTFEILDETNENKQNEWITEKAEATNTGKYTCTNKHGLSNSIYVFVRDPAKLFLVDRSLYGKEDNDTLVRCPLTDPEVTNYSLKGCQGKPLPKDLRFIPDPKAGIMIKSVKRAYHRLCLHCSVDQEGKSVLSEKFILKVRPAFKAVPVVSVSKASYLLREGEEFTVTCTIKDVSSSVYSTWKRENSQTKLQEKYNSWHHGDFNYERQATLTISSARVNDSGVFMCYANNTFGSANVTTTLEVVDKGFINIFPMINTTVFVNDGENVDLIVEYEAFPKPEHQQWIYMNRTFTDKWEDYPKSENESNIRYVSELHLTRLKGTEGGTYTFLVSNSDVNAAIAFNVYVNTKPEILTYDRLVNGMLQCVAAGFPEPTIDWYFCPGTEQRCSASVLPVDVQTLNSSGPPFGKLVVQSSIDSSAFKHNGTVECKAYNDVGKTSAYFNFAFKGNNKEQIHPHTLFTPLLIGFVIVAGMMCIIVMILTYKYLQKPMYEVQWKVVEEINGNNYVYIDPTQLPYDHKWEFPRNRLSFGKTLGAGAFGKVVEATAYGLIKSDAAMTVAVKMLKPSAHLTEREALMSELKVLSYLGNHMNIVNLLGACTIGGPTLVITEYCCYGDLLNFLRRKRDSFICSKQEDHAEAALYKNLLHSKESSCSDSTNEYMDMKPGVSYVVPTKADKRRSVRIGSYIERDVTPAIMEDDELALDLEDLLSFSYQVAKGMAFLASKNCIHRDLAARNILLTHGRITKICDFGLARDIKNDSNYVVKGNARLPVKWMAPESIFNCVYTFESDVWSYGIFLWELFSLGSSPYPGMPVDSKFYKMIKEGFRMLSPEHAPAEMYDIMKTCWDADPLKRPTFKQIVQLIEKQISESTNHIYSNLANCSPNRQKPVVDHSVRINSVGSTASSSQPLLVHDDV

B1: NEG085-MCC-DM1: antibody NEG085 conjugated to DM1 via SMCC linker (conjugate)
heavy: EVQLVESGGGLVQPGGSLRLSCAASGFAFSGYYMAWVRQAPGKGLEWVANINYPGSSTYYLDSVKGRFTISRDNAKNSLYLQMNSLRAEDTAVYYCARGDYYGTTYWYFDVWGQGTTVTVSSASTKGPSVFPLAPSSKSTSGGTAALGCLVKDYFPEPVTVSWNSGALTSGVHTFPAVLQSSGLYSLSSVVTVPSSSLGTQTYICNVNHKPSNTKVDKRV[human IgG1 Fc omitted here]
light: DIQMTQSPSSLSASVGDRVTITCRASQSISSYLNWYQQKPGKAPKLLIYYTSRLQSGVPSRFSGSGSGTDFTLTISSLQPEDFATYYCQQGRRLWSFGGGTKVEIKRTVAAPSVFIFPPSDEQLKSGTASVVCLLNNFYPREAKVQWKVDNALQSGNSQESVTEQDSKDSTYSLSSTLTLSKADYEKHKVYACEVTHQGLSSPVTKSFNRGEC
- cKIT receptor level (degradation) ([1]; 5 μg/ml, after 6 hours): very low/undetectable
- blocking of SCF binding to the cKIT receptor ([1]; ADC alone vs ADC with rh-SCF): does not block the cKIT receptor from binding SCF
- inhibition of cell proliferation [2]: inhibits cell proliferation of M07e cells at a low concentration
- antitumor activity (tumor volume) [3]: smallest tumor volumes in the tightest range
- AT/AC [4]: 9%
- antitumor activity (tumor volume) [4]: not statistically different from the vehicle
- antitumor activity (tumor volume) [5]: hint of efficacy, although also not statistically significant
